This is one part of the list. Interaction screen of human proteins with wild-type SARS-CoV-2 proteins by split-DHFR complementation in yeast, 1 µg/mL methotrexate. Value = fitness of the pair (three or more lineages) minus that of the viral protein without a human partner, on a scale set by negative (0) and fused positive (1) controls, mean of up to three cultures; higher = more likely to interact. Active = false discovery rate below 0.05 (one-sided t-test) in at least one culture. Nearly all pairs are not hits, and differences among them are mostly noise (correlation between cultures about 0.3); most hits were seen in one culture only. Human sequences are the Swiss-Prot entries looked up by gene name; the clone may be another isoform. NSP2 values were corrected by the authors for a growth advantage. Listed are human proteins with a hit and a random twelfth of the others.

First the molecules themselves.
B1: GSTK1, Q9Y2Q3 (protein)
chain: MGPLPRTVELFYDVLSPYSWLGFEILCRYQNIWNINLQLRPSLITGIMKDSGNKPPGLLPRKGLYMANDLKLLRHHLQIPIHFPKDFLSVMLEKGSLSAMRFLTAVNLEHPEMLEKASRELWMRVWSRNEDITEPQSILAAAEKAGMSAEQAQGLLEKIATPKVKNQLKETTEAACRYGAFGLPITVAHVDGQTHMLFGSDRMELLAHLLGEKWMGPIPPAVNARL
B2: TUBB, P07437 (protein)
chain: MREIVHIQAGQCGNQIGAKFWEVISDEHGIDPTGTYHGDSDLQLDRISVYYNEATGGKYVPRAILVDLEPGTMDSVRSGPFGQIFRPDNFVFGQSGAGNNWAKGHYTEGAELVDSVLDVVRKEAESCDCLQGFQLTHSLGGGTGSGMGTLLISKIREEYPDRIMNTFSVVPSPKVSDTVVEPYNATLSVHQLVENTDETYCIDNEALYDICFRTLKLTTPTYGDLNHLVSATMSGVTTCLRFPGQLNADLRKLAVNMVPFPRLHFFMPGFAPLTSRGSQQYRALTVPELTQQVFDAKNMMAACDPRHGRYLTVAAVFRGRMSMKEVDEQMLNVQNKNSSYFVEWIPNNVKTAVCDIPPRGLKMAVTFIGNSTAIQELFKRISEQFTAMFRRKAFLHWYTGEGMDEMEFTEAESNMNDLVSEYQQYQDATAEEEEDFGEEAEEEA
B3: SNX6, Q9UNH7 (protein)
chain: MMEGLDDGPDFLSEEDRGLKAINVDLQSDAALQVDISDALSERDKVKFTVHTKSSLPNFKQNEFSVVRQHEEFIWLHDSFVENEDYAGYIIPPAPPRPDFDASREKLQKLGEGEGSMTKEEFTKMKQELEAEYLAIFKKTVAMHEVFLCRVAAHPILRRDLNFHVFLEYNQDLSVRGKNKKEKLEDFFKNMVKSADGVIVSGVKDVDDFFEHERTFLLEYHNRVKDASAKSDRMTRSHKSAADDYNRIGSSLYALGTQDSTDICKFFLKVSELFDKTRKIEARVSADEDLKLSDLLKYYLRESQAAKDLLYRRSRSLVDYENANKALDKARAKNKDVLQAETSQQLCCQKFEKISESAKQELIDFKTRRVAAFRKNLVELAELELKHAKGNLQLLQNCLAVLNGDT
B4: CORO1B, Q9BR76 (protein)
chain: MSFRKVVRQSKFRHVFGQPVKNDQCYEDIRVSRVTWDSTFCAVNPKFLAVIVEASGGGAFLVLPLSKTGRIDKAYPTVCGHTGPVLDIDWCPHNDEVIASGSEDCTVMVWQIPENGLTSPLTEPVVVLEGHTKRVGIIAWHPTARNVLLSAGCDNVVLIWNVGTAEELYRLDSLHPDLIYNVSWNHNGSLFCSACKDKSVRIIDPRRGTLVAEREKAHEGARPMRAIFLADGKVFTTGFSRMSERQLALWDPENLEEPMALQELDSSNGALLPFYDPDTSVVYVCGKGDSSIRYFEITEEPPYIHFLNTFTSKEPQRGMGSMPKRGLEVSKCEIARFYKLHERKCEPIVMTVPRKSDLFQDDLYPDTAGPEAALEAEEWVSGRDADPILISLREAYVPSKQRDLKISRRNVLSDSRPAMAPGSSHLGAPASTTTAADATPSGSLARAGEAGKLEEVMQELRALRALVKEQGDRICRLEEQLGRMENGDA

The target of one experiment is SARS-CoV-2 E. Description: yeast fitness gain over the viral ORF with no human partner (scaled fitness); higher = more likely to interact. The protocol:
(§1)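 Split mouse DHFR complementation in pooled diploid yeast: human ORFeome clones carry one fragment and viral ORFs the other; barcoded lineages compete in 1 µg/mL methotrexate and fitness is read by barcode sequencing in up to three cultures.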
Regarding B1, the yeast fitness gain is inactive: 0.016.

In the case of B2, the yeast fitness gain is inactive: 0.0361.

As for B3, the yeast fitness gain is inactive: 0.0312.

As to B4, the yeast fitness gain was inactive: -0.000873.

The target in another experiment is SARS-CoV-2 M. Described as above. The protocol:
as §1
B1: the yeast fitness gain was inactive: 0.052.

With B3, the yeast fitness gain was inactive: 0.0763.

Take B4: the yeast fitness gain is inactive: 0.0255.

The next experiment deals with SARS-CoV-2 N. Described as above. The protocol:
as §1
B1: the yeast fitness gain was inactive: 0.0817.

As to B3, the yeast fitness gain is inactive: 0.0339.

Consider B4, for which the yeast fitness gain is inactive: 0.0615.

A further experiment has as its target SARS-CoV-2 NSP10. The experiment is described as above. The protocol:
as §1
Consider B1, for which the yeast fitness gain is inactive: -0.094.

With B3, the yeast fitness gain is inactive: -0.0143.

As for B4, the yeast fitness gain was inactive: 0.0326.

A further experiment has as its target SARS-CoV-2 NSP12. The description is as above. The protocol: as §1
With B1, the yeast fitness gain was inactive: -0.0269.

In the case of B3, the yeast fitness gain was inactive: 0.0247.

On to B4, for which the yeast fitness gain is inactive: 0.0212.

The next experiment addresses SARS-CoV-2 NSP13. The experiment is described as above. The protocol: as §1
On to B1, for which the yeast fitness gain is inactive: 0.0835.

On to B3, for which the yeast fitness gain is inactive: 0.0597.

Regarding B4, the yeast fitness gain is inactive: 0.0394.

The next experiment addresses SARS-CoV-2 NSP14. The experiment is described as above. The protocol:
as §1
On to B1, for which the yeast fitness gain is inactive: 0.0252.

Turning to B3, the yeast fitness gain was inactive: -0.263.

Take B4: the yeast fitness gain is inactive: -0.0513.

In a further experiment the target is SARS-CoV-2 NSP15. The experiment is described as above. The protocol:
as §1
Regarding B1, the yeast fitness gain is inactive: -0.0449.

As to B4, the yeast fitness gain was inactive: 0.011.

The target in a further experiment is SARS-CoV-2 NSP2. Described as above. The protocol: as §1
In the case of B1, the yeast fitness gain was inactive: -0.112.

In the case of B3, the yeast fitness gain is inactive: -0.0257.

On to B4, for which the yeast fitness gain was inactive: -0.105.

The target of the next experiment is SARS-CoV-2 NSP4. The description is as above. The protocol: as §1
Regarding B1, the yeast fitness gain is inactive: 0.156.

For B2, the yeast fitness gain is inactive: -0.00279.

Take B3: the yeast fitness gain was inactive: -0.0972.

As to B4, the yeast fitness gain was inactive: -0.0358.

The target in another experiment is SARS-CoV-2 NSP5. The description is as above. The protocol:
as §1
For B1, the yeast fitness gain is inactive: 0.0807.

B3: the yeast fitness gain was inactive: -0.00695.

As to B4, the yeast fitness gain is inactive: 0.0093.

The target in another experiment is SARS-CoV-2 NSP6. The experiment is described as above. The protocol:
as §1
Consider B1, for which the yeast fitness gain was inactive: -0.0223.

For the molecule B3, the yeast fitness gain is inactive: 0.102.

Take B4: the yeast fitness gain is inactive: -0.00141.

Another experiment concerns the target SARS-CoV-2 NSP7. Described as above. The protocol:
as §1
In the case of B1, the yeast fitness gain was inactive: 0.0236.

B3: the yeast fitness gain is inactive: -0.225.

Regarding B4, the yeast fitness gain was inactive: 0.0158.

The next experiment has as its target SARS-CoV-2 ORF10. Described as above. The protocol: as §1
Regarding B1, the yeast fitness gain was inactive: 0.0144.

Consider B3, for which the yeast fitness gain is inactive: 0.0673.

As to B4, the yeast fitness gain was inactive: 0.0121.

For another experiment, the target named is SARS-CoV-2 ORF3A. The experiment is described as above. The protocol: as §1
For B1, the yeast fitness gain is inactive: -0.0925.

Consider B4, for which the yeast fitness gain was inactive: 0.029.

Another experiment addresses SARS-CoV-2 ORF3B. Described as above. The protocol:
as §1
With B1, the yeast fitness gain is inactive: 0.00626.

In the case of B3, the yeast fitness gain was inactive: -0.00534.

Take B4: the yeast fitness gain is inactive: 0.00637.

For a further experiment, the target named is SARS-CoV-2 ORF6. The experiment is described as above. The protocol:
as §1
In the case of B1, the yeast fitness gain is inactive: 0.018.

For the molecule B3, the yeast fitness gain was inactive: 0.0195.

As to B4, the yeast fitness gain was inactive: 0.00421.

The target of a further experiment is SARS-CoV-2 ORF7A. Described as above. The protocol:
as §1
As for B1, the yeast fitness gain was inactive: 0.105.

As for B3, the yeast fitness gain is inactive: -0.0104.

B4: the yeast fitness gain was inactive: -0.0247.

The next experiment addresses SARS-CoV-2 ORF7B. The experiment is described as above. The protocol:
as §1
Regarding B1, the yeast fitness gain was inactive: -0.0104.

On to B3, for which the yeast fitness gain was inactive: -0.0118.

Turning to B4, the yeast fitness gain was inactive: 0.025.

The next experiment concerns the target SARS-CoV-2 ORF8. Described as above. The protocol:
as §1
For the molecule B1, the yeast fitness gain is inactive: 0.0151.

Regarding B3, the yeast fitness gain is inactive: 0.0172.

Consider B4, for which the yeast fitness gain was inactive: -0.0105.

A further experiment concerns the target SARS-CoV-2 ORF9B. The experiment is described as above. The protocol:
as §1
For B1, the yeast fitness gain is inactive: 0.00752.

Turning to B3, the yeast fitness gain was inactive: 0.0837.

Consider B4, for which the yeast fitness gain was inactive: 0.0077.

A further experiment addresses SARS-CoV-2 S. Described as above. The protocol:
as §1
For the molecule B1, the yeast fitness gain is inactive: -0.0888.

Take B3: the yeast fitness gain is inactive: -0.0464.

On to B4, for which the yeast fitness gain was inactive: 0.0214.

Another experiment addresses SARS-CoV-2 NSP16. The description is as above. The protocol: as §1
With B3, the yeast fitness gain is inactive: -0.225.

Turning to B4, the yeast fitness gain was inactive: -0.00644.

The target of a further experiment is SARS-CoV-2 NSP8. Described as above. The protocol: as §1
Turning to B3, the yeast fitness gain is inactive: -0.0306.

As for B4, the yeast fitness gain was inactive: 0.0623.

A further experiment addresses SARS-CoV-2 NSP9. The description is as above. The protocol:
as §1
Turning to B3, the yeast fitness gain is inactive: -0.208.

For the molecule B4, the yeast fitness gain is inactive: -0.0105.

The next experiment deals with SARS-CoV-2 ORF9Bwu (the 73-codon ORF). The experiment is described as above. The protocol: as §1
With B3, the yeast fitness gain is inactive: 0.036.

Take B4: the yeast fitness gain was inactive: 0.0495.

The target of another experiment is SARS-CoV-2 NSP1. The experiment is described as above. The protocol:
as §1
As for B4, the yeast fitness gain was inactive: 0.0429.

The values are drawn from the supplement of paper PMC11741623.
